Over roughly 33,000 sequences, “E-score (-0.5 to 0.5)” has its median near -0.021; the highest 2% begin near 0.32. This is one part of the list.
Target: T1, Zap1 (UniProt P47043)
T1 sequence: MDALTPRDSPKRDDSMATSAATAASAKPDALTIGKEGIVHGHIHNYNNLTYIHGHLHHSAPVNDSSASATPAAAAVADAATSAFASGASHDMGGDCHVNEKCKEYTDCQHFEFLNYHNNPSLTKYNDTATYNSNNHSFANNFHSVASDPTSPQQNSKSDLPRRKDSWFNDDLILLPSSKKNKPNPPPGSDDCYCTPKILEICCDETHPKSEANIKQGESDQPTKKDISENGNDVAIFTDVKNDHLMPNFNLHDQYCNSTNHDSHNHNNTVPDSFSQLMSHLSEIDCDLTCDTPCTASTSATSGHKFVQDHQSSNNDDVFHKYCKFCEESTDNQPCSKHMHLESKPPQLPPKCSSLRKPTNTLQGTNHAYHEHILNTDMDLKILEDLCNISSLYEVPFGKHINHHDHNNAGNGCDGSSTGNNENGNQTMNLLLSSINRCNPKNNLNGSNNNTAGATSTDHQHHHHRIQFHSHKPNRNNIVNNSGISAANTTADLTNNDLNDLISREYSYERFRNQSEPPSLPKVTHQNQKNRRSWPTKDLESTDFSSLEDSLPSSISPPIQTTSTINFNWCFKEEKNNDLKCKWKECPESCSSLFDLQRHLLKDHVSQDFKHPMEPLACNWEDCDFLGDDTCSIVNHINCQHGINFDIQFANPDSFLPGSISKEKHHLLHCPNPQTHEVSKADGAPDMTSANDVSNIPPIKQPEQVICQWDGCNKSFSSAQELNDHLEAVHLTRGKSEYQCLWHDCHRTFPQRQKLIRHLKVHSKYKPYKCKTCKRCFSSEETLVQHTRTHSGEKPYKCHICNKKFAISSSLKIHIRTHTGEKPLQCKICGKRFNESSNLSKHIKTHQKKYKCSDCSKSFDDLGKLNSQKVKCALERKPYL
Test: PBM E-score (8-mer binding enrichment) (E-score (-0.5 to 0.5)); higher = stronger / more preferred TF binding; most listed sequences are background and not binding sites
Conditions: protein concentration: 200 nM; construct: GST-full length
How it was run: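 E-scores (a modified Wilcoxon-Mann-Whitney statistic) were assigned by the Universal PBM Analysis Suite to every ungapped eight-base word pooled with its reverse complement. The input came from universal all-10-mer Agilent arrays made double-stranded by primer extension and probed with GST-tagged yeast transcription factors at about 100-200 nM. Fluorescent anti-GST detected bound protein, and masliner normalised the scans.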

Question: With CACTCCGC as the sequence, how does the “PBM E-score” value read?
Answer: Its value is -0.143.

Question: For CATATCTC, which “PBM E-score” value is on record?
Answer: Its value is -0.225.

Question: With AAGTACGT as the sequence, how does the “PBM E-score” value read?
Answer: The value was 0.0315.

Question: With CGGGATCA as the sequence, how does the “PBM E-score” value read?
Answer: The value was -0.0134.

Question: With ATCGCTTG as the sequence, how does the “PBM E-score” value read?
Answer: Its value is -0.0906.

Question: Which “PBM E-score” value does the source give for AGCCCAAT here?
Answer: The value was -0.0124.

Question: AGGCAATC was tested. Which “PBM E-score” value did it give?
Answer: The value was -0.244.

Question: With CCTTTGTA as the sequence, how does the “PBM E-score” value read?
Answer: The value was 0.178.

Question: Which “PBM E-score” value does the source give for CCACTGGG here?
Answer: The value was 0.0233.

Question: For ACTTTTCA, which “PBM E-score” value is on record?
Answer: The value was 0.0745.

Question: ACGAATGC was tested. Which “PBM E-score” value did it give?
Answer: Its value is -0.107.

Question: With GTCGGCAC as the sequence, how does the “PBM E-score” value read?
Answer: Its value is -0.131.

Question: With AAAATAAC as the sequence, how does the “PBM E-score” value read?
Answer: Its value is 0.21.

Question: For AGCACACG, which “PBM E-score” value is on record?
Answer: Its value is -0.146.

Question: With CACGTGAA as the sequence, how does the “PBM E-score” value read?
Answer: Its value is -0.108.

Question: Which “PBM E-score” value does the source give for TATGGAAA here?
Answer: Its value is 0.149.

Question: Which “PBM E-score” value does the source give for CGCCGAAA here?
Answer: The value was -0.0232.

Question: With CGGACATC as the sequence, how does the “PBM E-score” value read?
Answer: Its value is -0.0493.

Question: For ATATGGCG, which “PBM E-score” value is on record?
Answer: The value was -0.174.

Question: How did the “PBM E-score” value turn out when AGTGGATC was run?
Answer: The value was -0.0804.

Question: GGTCAAGA was tested. Which “PBM E-score” value did it give?
Answer: The value was 0.242.

Question: With CGCGGACC as the sequence, how does the “PBM E-score” value read?
Answer: Its value is 0.127.

Question: With CAGGATCA as the sequence, how does the “PBM E-score” value read?
Answer: The value was -0.0306.

Question: For CCTACTAG, which “PBM E-score” value is on record?
Answer: The value was 0.0753.

Question: With CAGGGTAA as the sequence, how does the “PBM E-score” value read?
Answer: The value was 0.354.

Question: For CACGAACC, which “PBM E-score” value is on record?
Answer: Its value is 0.129.

Question: Which “PBM E-score” value does the source give for AACATGAT here?
Answer: Its value is 0.155.

Question: For TAATCCTA, which “PBM E-score” value is on record?
Answer: Its value is -0.0514.

Question: Which “PBM E-score” value does the source give for AAGCGATC here?
Answer: Its value is -0.176.

Question: With AAACACAC as the sequence, how does the “PBM E-score” value read?
Answer: Its value is 0.202.

Question: ACCTACAT was tested. Which “PBM E-score” value did it give?
Answer: Its value is 0.108.

Question: Which “PBM E-score” value does the source give for GGGGCTAC here?
Answer: Its value is 0.0181.

Question: Which “PBM E-score” value does the source give for GGATAGAC here?
Answer: Its value is -0.192.

Question: Which “PBM E-score” value does the source give for ACGGTACT here?
Answer: Its value is 0.0886.

Question: CGCAAGAG was tested. Which “PBM E-score” value did it give?
Answer: The value was 0.0283.

Question: With GGGTTAGA as the sequence, how does the “PBM E-score” value read?
Answer: Its value is 0.284.

Question: For GATAGGAC, which “PBM E-score” value is on record?
Answer: Its value is -0.166.

Question: How did the “PBM E-score” value turn out when CATCAACG was run?
Answer: The value was -0.116.

Question: ACATCACT was tested. Which “PBM E-score” value did it give?
Answer: The value was -0.113.

Question: For ACGACATG, which “PBM E-score” value is on record?
Answer: The value was -0.0709.

Question: For TGGTACCA, which “PBM E-score” value is on record?
Answer: Its value is 0.357.

Question: CAGCAATC was tested. Which “PBM E-score” value did it give?
Answer: Its value is -0.206.

Question: How did the “PBM E-score” value turn out when CTATTCAC was run?
Answer: The value was 0.059.

Question: With AAAACCCG as the sequence, how does the “PBM E-score” value read?
Answer: Its value is 0.131.

Question: AAGAGTGT was tested. Which “PBM E-score” value did it give?
Answer: Its value is -0.01.

Question: How did the “PBM E-score” value turn out when CAAGAAGA was run?
Answer: Its value is 0.0777.

Question: Which “PBM E-score” value does the source give for CAAAAACC here?
Answer: Its value is 0.302.

Question: How did the “PBM E-score” value turn out when GCATTACA was run?
Answer: Its value is -0.086.

Question: Which “PBM E-score” value does the source give for GCTGGGGA here?
Answer: The value was -0.0703.

Question: For CTCGCACA, which “PBM E-score” value is on record?
Answer: Its value is -0.00714.

Question: Which “PBM E-score” value does the source give for CTGACAGC here?
Answer: The value was -0.101.

Question: With CCAAAGTC as the sequence, how does the “PBM E-score” value read?
Answer: Its value is 0.0188.

Question: How did the “PBM E-score” value turn out when GGCTGGAA was run?
Answer: The value was -0.121.

Question: Which “PBM E-score” value does the source give for ATGTGTCC here?
Answer: The value was 0.0846.

Question: How did the “PBM E-score” value turn out when CGTTTTGC was run?
Answer: The value was -0.0673.

Question: How did the “PBM E-score” value turn out when AACTAAGT was run?
Answer: Its value is 0.0654.

Question: Which “PBM E-score” value does the source give for CCTTCACG here?
Answer: The value was 0.113.

Question: For CCCTGCAG, which “PBM E-score” value is on record?
Answer: Its value is 0.178.

Question: For CGTGAGAG, which “PBM E-score” value is on record?
Answer: Its value is -0.254.

Question: Which “PBM E-score” value does the source give for GGCCAAGA here?
Answer: Its value is -0.263.

Question: How did the “PBM E-score” value turn out when AAGAGGCC was run?
Answer: Its value is -0.122.

Question: AGCGCCCT was tested. Which “PBM E-score” value did it give?
Answer: Its value is -0.212.

Question: GTTCGTGA was tested. Which “PBM E-score” value did it give?
Answer: The value was 0.0541.

Question: For CAAAGTGG, which “PBM E-score” value is on record?
Answer: Its value is -0.13.

Question: AGTACGTA was tested. Which “PBM E-score” value did it give?
Answer: Its value is -0.12.

Question: With GGTAGACC as the sequence, how does the “PBM E-score” value read?
Answer: Its value is 0.122.

Question: For GACCGACC, which “PBM E-score” value is on record?
Answer: The value was 0.0331.

Question: How did the “PBM E-score” value turn out when GTGACCGA was run?
Answer: Its value is 0.0488.

Question: For ACGAAGCG, which “PBM E-score” value is on record?
Answer: Its value is -0.155.

Question: CAGGTCCA was tested. Which “PBM E-score” value did it give?
Answer: Its value is 0.0524.

Question: For CTTGCGCC, which “PBM E-score” value is on record?
Answer: The value was -0.165.

Question: With CACCACTG as the sequence, how does the “PBM E-score” value read?
Answer: Its value is -0.0127.

Question: ATCGACGA was tested. Which “PBM E-score” value did it give?
Answer: The value was -0.113.

Question: CCGACTAC was tested. Which “PBM E-score” value did it give?
Answer: Its value is -0.0291.

Question: CTAGTGAA was tested. Which “PBM E-score” value did it give?
Answer: Its value is 0.103.

Question: With ACCCAAAC as the sequence, how does the “PBM E-score” value read?
Answer: Its value is 0.312.

Question: With CCAGGGAC as the sequence, how does the “PBM E-score” value read?
Answer: Its value is -0.163.

Question: For ATGTCTTC, which “PBM E-score” value is on record?
Answer: The value was -0.2.

Question: For ATCCCCAC, which “PBM E-score” value is on record?
Answer: The value was -0.0104.

Question: For ATTAAGGA, which “PBM E-score” value is on record?
Answer: The value was -0.0248.

Question: For ATTCTTTG, which “PBM E-score” value is on record?
Answer: The value was 0.109.

Question: GCTGATGA was tested. Which “PBM E-score” value did it give?
Answer: The value was -0.171.

Question: How did the “PBM E-score” value turn out when AGCTGCGA was run?
Answer: The value was -0.102.

Question: For GCCATTCA, which “PBM E-score” value is on record?
Answer: Its value is 0.105.

Question: For GACCGGAC, which “PBM E-score” value is on record?
Answer: Its value is -0.0718.

Question: For CACGAGTC, which “PBM E-score” value is on record?
Answer: Its value is 0.00023.

Question: For CTCTAATC, which “PBM E-score” value is on record?
Answer: The value was -0.192.

Question: For ACCTTCGC, which “PBM E-score” value is on record?
Answer: Its value is 0.211.

Question: How did the “PBM E-score” value turn out when CAGCGGAG was run?
Answer: Its value is -0.279.

Question: For CAACAGCA, which “PBM E-score” value is on record?
Answer: Its value is -0.00694.

Question: How did the “PBM E-score” value turn out when CAAACGAG was run?
Answer: The value was 0.0176.

Question: With ATATTGAA as the sequence, how does the “PBM E-score” value read?
Answer: The value was 0.0228.

Question: Which “PBM E-score” value does the source give for AATCATAG here?
Answer: The value was 0.0588.

Question: How did the “PBM E-score” value turn out when GTTCAGAA was run?
Answer: Its value is 0.00591.
